According to the supplement of paper PMC11417369:
± gives the standard deviation of the averaged measurements. This is one part of the list.

test system: PfAP2-EXP AP2 domain (GST-tagged); assay: gcPBM binding intensity (ln(normalized median fluorescence intensity)); higher = stronger DNA binding
Summary of the method: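 GST-fused DNA-binding domains of P. falciparum, expressed in E. coli, were applied at about 25 μg on average for 1 h to an Agilent 4 × 180k array of primer-extended double-stranded 36-bp intergenic genomic probes and negative controls. Binding intensity is the highest Masliner-normalised natural-log median intensity across replicate spots of either probe orientation, measured with Alexa488 anti-GST antibody and a 488 nm scan.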

| Sequence | gcPBM binding intensity (ln) |
| --- | --- |
| TATTGACAAAAAAAAAAAAGGTAAAAAAGAAAGAAA [GTGCAC_negctrl_site418] | 8.66 ± 0.56 |
| AATAAATATAGGTACACACACAAATATGTACATATC [CACACA_site6976] | 8.79 ± 0.34 |
| TAGTTGCACATGTATACACACAAAAAATATTTTATG [CACACA_site475] | 8.94 ± 0.26 |
| AAAGAAAGGAATACGACACACAAAAAAAAAATATAT [CACACA_site1934] | 8.9 ± 0.54 |
| AAGAAACCATAATATGCATGCACATATTAATAAATA [TGCATGCA_site693] | 9.68 ± 0.26 |
| AAGTGGTTATAATCAACACACGTGGAATGTACTTTA [CACACA_site3700] | 8.67 ± 0.34 |
| CTACATACAAGAATTAAACACACACTAATTATAAAT [CACACA_site8986] | 8.56 ± 0.54 |
| CCTCAATATTCACATACACACAATATCATCGAAGTA [CACACA_site1676] | 8.8 ± 0.56 |
| AATAAGCATATACAAACATGCATACATATAAATAAA [TGCATGCA_site338] | 8.84 ± 0.47 |
| TTTTTTTTTTTTTTGACACACATAATAAAATACAAA [CACACA_site3080] | 8.29 ± 0.46 |
| GAAACGATTTAATACACACACGTATTATAGATATAT [CACACA_site6666] | 8.56 ± 0.3 |
| TATATATTTGTAACGGGTACGTAGGTGTATATTCCA [XGTACX_site6028] | 8.7 ± 0.38 |
| AGCCACGTGGTATATACACACATAATCAAATAAAAT [CACACA_site9364] | 8.72 ± 0.54 |
| GAAAGAATAAAATTTACACACATATATAAATACATA [CACACA_site5273] | 8.44 ± 0.33 |
| AAATATTTTAACGAGAGTACATAATAACAATTTATG [XGTACX_site3865] | 8.64 ± 0.38 |
| TTTTTTTTTTTTTATTGTACTAAATTATAGAGGGGA [XGTACX_site2609] | 8.45 ± 0.55 |
| AAAAAAAAAAAATACACACACACATATATATATATA [CACACA_site731] | 10.2 ± 0.18 |
| ATAAAACAACACACTTGTACTAATTTTTTTTTTTTT [XGTACX_site8377] | 8.29 ± 0.36 |
| TGAATAAATAGACACACACACATATATAAATATGTA [CACACA_site6159] | 8.46 ± 0.47 |
| TAATTTATAAGGTATAACAACAATTGCATCTATCAC [XGTACX_negctrl_site314] | 8.59 ± 0.49 |
| ATTATCCATGCATTTACACACACACTAAAAAAAATT [CACACA_site7848] | 8.87 ± 0.26 |
| AATTAAATTTATATGAATGTCAATTATATTGTTATA [XGTACX_negctrl_site261] | 8.06 ± 0.3 |

| Sequence | gcPBM binding intensity (ln) |
| --- | --- |
| ATGTATATATATTTGTGTACATATTTAGGAAATAAA [XGTACX_site2904] | 8.62 ± 0.33 |
| TTGAATTAAAAACATACATGCATATATATATATATA [TGCATGCA_site319] | 10.1 ± 0.52 |
| AAAAAGTTACATGGTGGTACTCAAATAAAATATTCT [XGTACX_site5993] | 8.34 ± 0.28 |
| TTATAAAATGGGCAAACACACACAAAAAAAAGATAT [CACACA_site8476] | 9.02 ± 0.61 |
| AATAAATTACTATGTACACACATAAGAGTATAAATA [CACACA_site6940] | 8.56 ± 0.32 |
| AATATATCTTTTTACGGCAACCATATTTTTCCCATT [CACACA_negctrl_site963] | 8.88 ± 0.52 |
| TTTTTTTTTTTTTGATGTACATAAATTAAGAATTAT [XGTACX_site7789] | 8.4 ± 0.54 |
| TTTTTTTTAGTATGAACACACATATATATTATAAAA [CACACA_site2935] | 8.35 ± 0.37 |
| TTTATATGTGAAAAAAGTACAAGGAAAAAATTAAAC [XGTACX_site7269] | 9.06 ± 0.35 |
| TATTATGTTATATATTGTACATGTTTATTGAAACAA [XGTACX_site5605] | 8.66 ± 0.21 |
| TATTAACAAAATATAGCACACATAAATATATATTTA [CACACA_site8005] | 8.63 ± 0.23 |
| AATATAATTATATGTGGTACAGAAATAATATAAAAT [XGTACX_site2366] | 8.86 ± 0.3 |
| TTCTTTTTTTTTCTGGGTACATATATTCCAATCACT [XGTACX_site4770] | 8.99 ± 0.39 |
| TTATAAAAGACAAAAGTGCATATATACATATGTATA | 8.48 ± 0.42 |
| TATAACTTTTATAGGTGTACCCAATATTATATATAG [XGTACX_site7673] | 8.46 ± 0.12 |
| TTTATATGTTTTGTATTTTTAATAAATATTTTATTA [TGCATGCA_negctrl_site20] | 8.68 ± 0.31 |
| TATATATAATAAGAAGGTACACGTAAGTAATAATTT [XGTACX_site934] | 9.09 ± 0.49 |
| CCATCTTTTTTACGATGTACAAGTATAAGGTATACG [XGTACX_site2697] | 8.52 ± 0.38 |
| ATATATATATATGTATGTACACATATTTTTTAACTT [XGTACX_site431] | 10.42 ± 0.042 |
| AAATAAATAAATTAACGTACATAATAACATTAATAT [XGTACX_site8567] | 8.46 ± 0.26 |
| TTATATTATAGACACACACACAAAAAAAAAAAAAAA [CACACA_site3816] | 8.19 ± 0.59 |
| TGTAAAACCTCCTACACACACCAATTAACTATTCTA [CACACA_site7074] | 8.54 ± 0.44 |

| Sequence | gcPBM binding intensity (ln) |
| --- | --- |
| TATATATATATTATTAGTACTTATTTTTTTTCATAT [XGTACX_site1279] | 9.63 ± 0.3 |
| AAAGAAAAATTAACATGTACAAAAATTACTTGTTCA [XGTACX_site6725] | 8.47 ± 0.38 |
| GTATATAAATATATATATATATATATATCTATATTT [CACACA_negctrl_site871] | 8.29 ± 0.11 |
| GTATTTTTACAAATTTGTACATATATATGAATATAC [XGTACX_site6717] | 9.12 ± 0.44 |
| AAAAAAAATTCACACTGTACAAAAGCATAAATAAAC [XGTACX_site5408] | 9.08 ± 0.4 |
| TCTGAAACAAGAAAAAGTACACAAATTACAAAACTA [XGTACX_site7641] | 8.72 ± 0.33 |
| ATATTTACCTTTGTATGTACATATATAAAATATATC [XGTACX_site6367] | 8.81 ± 0.46 |
| TTTTGTAAAAAGAAAAATTAGAATATATCGTATATA [XGTACX_negctrl_site617] | 8.02 ± 0.43 |
| TTATTTATTTATTCATGTACGTGTATTTTTTAAAAA [XGTACX_site7915] | 8.94 ± 0.43 |
| TATATATATATTATCACACACTCACGTTTGACAAAA [CACACA_site689] | 9.65 ± 0.29 |
| TAATAAATACAAAAATGTACACACATATATATATTT [XGTACX_site7430] | 8.39 ± 0.4 |
| AGTGTCATATTAACACGTACATAATTATTGTAGAGA [XGTACX_site568] | 8.85 ± 0.38 |
| ATTGGGTACAAATACACACACATATATATATTAAGA [CACACA_site5330] | 8.66 ± 0.49 |
| TATTACATACAATATTGTACATATCATATTTTGAAT [XGTACX_site2191] | 8.55 ± 0.3 |
| ACGGAAAAAGAAAAGGTGCATATGGACACAATATAT | 9.35 ± 0.17 |
| ATTATTTGTTTAAATTCACACACGTATATATATTTA [CACACA_site3050] | 8.66 ± 0.42 |
| ACATGTAAATGGAAAAGTACTAATAACTTGTATTGG [XGTACX_site5181] | 8.89 ± 0.25 |
| ATAGAAATATTATATTGTACGAACAGTTATTAACAA [XGTACX_site2137] | 8.77 ± 0.29 |
| ATATATAAATATATTACACACTTTTTCTTTTTTTTT [CACACA_site7332] | 8.41 ± 0.42 |
| TTATTTTAATATAAAATACACACTACTATTATAAAT [CACACA_site1470] | 8.3 ± 0.34 |
| TAATTATTAAAACATTGTACATTATTATAAACAATT [XGTACX_site4489] | 8.22 ± 0.31 |
| TTTTCCATAAGAATTACACACAGAAAGGATAAGTAT [CACACA_site105] | 8.78 ± 0.27 |

| Sequence | gcPBM binding intensity (ln) |
| --- | --- |
| AAACAGCATGGTATACCTATAAAATATATATACTAA [GTGCAC_negctrl_site39] | 8.53 ± 0.45 |
| CTTATATTAATTATTACACACATATTTATAAATGCA [CACACA_site6501] | 8.52 ± 0.34 |
| ATTTGTTACGGACATGCATGCGAATCAGGGTATATA [TGCATGCA_site154] | 10.1 ± 0.28 |
| TCACCTATTTTTAACTGTACTGAAATGATATATATA [XGTACX_site1366] | 8.73 ± 0.47 |
| TAATGAAATTGTAGTAGTACCTTCTTATAAATAAAA [XGTACX_site6747] | 8.16 ± 0.42 |
| TAAGAAAAAAAAAAAAAAAAAAAAAAAAAAAAAAAA [CACACA_negctrl_site760] | 7.95 ± 0.45 |
| TAAAAATATTTTCATTGTACATATATATAAATATAT [XGTACX_site1123] | 8.4 ± 0.33 |
| TATAAAAAAAAAAAATATATATATATATAAATATAA [TGCATGCA_negctrl_site367] | 8.2 ± 0.31 |
| TACATATATATATATATATATATATATATCATTATG [XGTACX_negctrl_site293] | 8.91 ± 0.11 |
| TTGAGGAAATAACAGTGTACAAACAAATTATTACCA [XGTACX_site7082] | 8.59 ± 0.35 |
| GTTCAATTTTTAGGAAGTACAAAAAAAAAAAAGAAA [XGTACX_site7286] | 8.6 ± 0.46 |
| ATGGTACATACATACACACACACAAAAAAAAAAAAA [CACACA_site1578] | 8.21 ± 0.59 |
| TATATTAGTGTTGACACACACAAAAAAAAAAAAAAA [CACACA_site1396] | 8.29 ± 0.5 |
| TATATTTGTATTGTTTGTACTTATATGAATTTATAT [XGTACX_site4228] | 8.62 ± 0.41 |
| CAAACCTATATACAAACATGCAATCCACATATTGGT [TGCATGCA_site756] | 8.57 ± 0.44 |
| TTTATTGACAATTTATGTACATATAATTGAAAAATA [XGTACX_site6634] | 8.57 ± 0.3 |
| GAATGGACGTTAGGGGGTACGTATAAAATTTATCAA [XGTACX_site683] | 9.72 ± 0.44 |
| TTTGTGATATTATATTGTACCCTATATTTATTATAA [XGTACX_site4240] | 8.66 ± 0.34 |
| GTGGAACGTATATTTTCACACACTCTCAAAAGTACA [CACACA_site8722] | 8.43 ± 0.44 |
| ATGTTGCACAGTGGAAGAATTAAAAATAAATAAATA [XGTACX_negctrl_site581] | 8.62 ± 0.24 |
| AAATAATGTTTGAATTGTACACATATTTGTGTTTCT [XGTACX_site4603] | 8.43 ± 0.2 |
| AATTTTTGTATTTTTAGTACTTAATTTCAAAATAAC [XGTACX_site4234] | 8.39 ± 0.38 |
